Reference: the BET-seq Pho4 binding data (Le et al. 2018)
Some of the results follow. Values were computed here from the reads of four pooled replicates and scatter widely.

These sequences were tested against T1, Pho4 (S. cerevisiae) (UniProt P07270) (assay: relative binding free energy (BET-seq); higher = weaker binding). Details: reference: library average.
T1 sequence: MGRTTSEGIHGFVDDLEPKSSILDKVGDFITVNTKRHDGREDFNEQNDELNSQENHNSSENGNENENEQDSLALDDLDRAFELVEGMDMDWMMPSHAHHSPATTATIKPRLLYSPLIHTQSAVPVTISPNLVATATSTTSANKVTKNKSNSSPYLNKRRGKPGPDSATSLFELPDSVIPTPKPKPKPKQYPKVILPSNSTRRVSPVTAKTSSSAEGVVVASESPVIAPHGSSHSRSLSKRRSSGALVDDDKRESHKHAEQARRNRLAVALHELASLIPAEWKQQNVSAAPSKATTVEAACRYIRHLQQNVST

Sequence	relative binding free energy
ATTGGCACGTGAGCGA	0.06 kcal/mol
AATGGCACGTGTGCAT	-0.05 kcal/mol
TTTTTCACGTGTCGTA	0.21 kcal/mol
CTATTCACGTGGAGTT	0.27 kcal/mol
CTTTTCACGTGTAGGA	0.43 kcal/mol
GGCTGCACGTGTAGGA	0.07 kcal/mol
TGGGCCACGTGTAGGT	-0.03 kcal/mol
TTTTCCACGTGTCGGT	0.15 kcal/mol
AAGTACACGTGAAGGG	0.2 kcal/mol
TAGAGCACGTGATTTT	0.13 kcal/mol
CTTGGCACGTGTTCGA	-0.04 kcal/mol
GTGCGCACGTGGTGTG	-0.17 kcal/mol
TGGGCCACGTGTGCGT	-0.29 kcal/mol
AGAGGCACGTGGAGGG	-0.14 kcal/mol
CATGTCACGTGTGTCG	0.13 kcal/mol
TGGTGCACGTGATTAG	0.12 kcal/mol
ATTGTCACGTGAAATA	0.3 kcal/mol
TGGTGCACGTGATGAA	-0.01 kcal/mol
ACGACCACGTGGGGGG	-0.12 kcal/mol
GCTTTCACGTGCTTTG	0.2 kcal/mol
GAGGGCACGTGGTTTT	-0.07 kcal/mol
TTATCCACGTGGGGCT	-0.06 kcal/mol
GGCGTCACGTGTGTGA	0.1 kcal/mol

Sequence	relative binding free energy
TGAATCACGTGGTGAT	0.15 kcal/mol
CTTGCCACGTGGTGTT	-0.12 kcal/mol
TTAAGCACGTGTTGGA	-0.1 kcal/mol
GCTGACACGTGTTGGT	0.08 kcal/mol
AGTTTCACGTGCGGTC	0.34 kcal/mol
GGGGTCACGTGAGTTG	0.26 kcal/mol
CCGGGCACGTGGCTGG	-0.21 kcal/mol
ATAGCCACGTGGTTGT	-0.18 kcal/mol
GCAGTCACGTGGTAGT	-0.04 kcal/mol
AGAATCACGTGGATGT	0.12 kcal/mol
ATGGGCACGTGGTGCT	-0.23 kcal/mol
TGCAACACGTGGTGGG	-0.1 kcal/mol
GGGTACACGTGATCTT	0.22 kcal/mol
ATCGGCACGTGAGTTA	0.15 kcal/mol
GTTGTCACGTGTGGGC	0.2 kcal/mol
TTAGCCACGTGTGGTT	0.04 kcal/mol
TCGTGCACGTGATGGA	0.15 kcal/mol
CGAGTCACGTGCGTGG	-0.03 kcal/mol
AGGGTCACGTGGCGTA	0.05 kcal/mol
AGGGGCACGTGCGTGC	-0.2 kcal/mol
GGAAACACGTGGAGTT	0 kcal/mol
GGTAACACGTGTTGTA	0.12 kcal/mol
TCGTCCACGTGTTTTT	0.28 kcal/mol

Sequence	relative binding free energy
CGGGTCACGTGGGGAG	0 kcal/mol
GTGGGCACGTGGGTGG	-0.1 kcal/mol
TGGGACACGTGGGAGC	-0.01 kcal/mol
TAGCGCACGTGGTTTT	0.08 kcal/mol
AGGTACACGTGGGAAG	-0.12 kcal/mol
GAGAACACGTGGTTTG	0.13 kcal/mol
CTCGTCACGTGTAGTT	0.02 kcal/mol
CGAGGCACGTGTGTGT	-0.13 kcal/mol
ATGATCACGTGATGAT	0.25 kcal/mol
GGGTCCACGTGGGAGT	-0.21 kcal/mol
TGTGGCACGTGAAGCT	0.11 kcal/mol
TGTTTCACGTGAATGT	0.39 kcal/mol
AGATACACGTGCGTTG	-0.03 kcal/mol
TGGAGCACGTGGGACT	-0.14 kcal/mol
TGATGCACGTGTATCT	0.09 kcal/mol
TCAGCCACGTGGGTTG	-0.1 kcal/mol
CATTACACGTGGTTAG	0.14 kcal/mol
TATGGCACGTGCCGGG	-0.24 kcal/mol
TAATTCACGTGTAGTG	0.2 kcal/mol
TGAGCCACGTGTGGTT	-0.06 kcal/mol
AGTGTCACGTGGCAAG	0.01 kcal/mol
TACGTCACGTGTGGCG	0.09 kcal/mol
TAATTCACGTGTGCAG	0.4 kcal/mol

Sequence	relative binding free energy
GATGGCACGTGGGCAG	-0.19 kcal/mol
AGTGTCACGTGGTCGG	0.03 kcal/mol
TGTATCACGTGTGAAT	0.17 kcal/mol
ATGTACACGTGGGATG	-0.06 kcal/mol
TATAGCACGTGGGGCT	-0.13 kcal/mol
AGGTCCACGTGAGGTT	0.3 kcal/mol
ATTAACACGTGTAGGT	-0.02 kcal/mol
GAAATCACGTGAGTTG	0.34 kcal/mol
GGTGCCACGTGGGTCG	-0.1 kcal/mol
CTGTACACGTGCTGGT	0.07 kcal/mol
TGATCCACGTGATGGG	0.08 kcal/mol
TGTTACACGTGAGGCT	0.35 kcal/mol
TCTTTCACGTGGTCTT	0.18 kcal/mol
AGCGCCACGTGTGAGG	-0.04 kcal/mol
TGATGCACGTGTGATG	0.09 kcal/mol
TTTTTCACGTGTCGCT	0.31 kcal/mol
TGGTGCACGTGTTCTC	0.02 kcal/mol
GCGGGCACGTGTTATT	-0.02 kcal/mol
TGCAGCACGTGGTGTG	-0.07 kcal/mol
TATGACACGTGCGTTG	-0.06 kcal/mol
TCGTGCACGTGGTCGT	-0.18 kcal/mol
GGTATCACGTGCTCTG	0.3 kcal/mol
GAGTCCACGTGCGGGT	0.05 kcal/mol

Sequence	relative binding free energy
CGTGGCACGTGATGTA	-0.06 kcal/mol
TTAGCCACGTGGTTTG	-0.18 kcal/mol
ACGGGCACGTGTGTGT	-0.1 kcal/mol
TATCGCACGTGGGTTG	-0.21 kcal/mol
GTAAGCACGTGTGGAG	0.04 kcal/mol
TATGGCACGTGTATCT	0 kcal/mol
GGTCGCACGTGGCGCG	-0.04 kcal/mol
AGGTGCACGTGGCGTT	-0.11 kcal/mol
TAGTTCACGTGTTGAC	0.23 kcal/mol
GAAAGCACGTGGTTAG	-0.14 kcal/mol
TCTAGCACGTGTGGTA	-0.11 kcal/mol
GGACTCACGTGGGGGA	0.01 kcal/mol
AATTGCACGTGGGATG	-0.01 kcal/mol
GGTTGCACGTGAGTGA	0.22 kcal/mol
GTGCGCACGTGGTAGT	-0.13 kcal/mol
TTGCGCACGTGCGGTG	-0.19 kcal/mol
TTAGTCACGTGGAGTG	0.03 kcal/mol
GTGGGCACGTGAGGAC	0.1 kcal/mol
ATGCTCACGTGGTGGA	0.31 kcal/mol
ATTTTCACGTGGATCA	0.26 kcal/mol
CTTGTCACGTGTAATA	0.15 kcal/mol
CCGGGCACGTGGTGTA	-0.21 kcal/mol
CGGTTCACGTGGGGAC	0.2 kcal/mol
